# The whole screen tested about 340,000 compounds, of which about 12,000 (3.5%) were called active. Inconclusive means that the source gave no clear call. Such entries were picked first, then a sample of the others. Calls follow the shape of the dose curve; as a rule, active = well fitted inhibition curve with a large enough effect; inconclusive = small, poorly fitted or top-dose-only effect, or another doubt; inactive = no such curve, though single readings can be large or run the other way. No potency is given beside an inconclusive call; the fits are too rough.
# Assay: qHTS Assay for Inhibitors of Hepatitis C Virus (HCV)
# Details: Huh7.5.1 HCVcc-Cre (HCVcc is cell-culture hepatitis C virus) infection, luciferase reporter, 44 h; activity change, negative = inhibition: at 41.8 µM (top of the series) unless noted
# Procedure, shortened: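 Cells seeded at 1,000/well and cultured 4 h, then compounds added followed by HCVcc-Cre virus (~0.5 moi). After 44 h further culture, luciferase substrate was added, plates held 15 min at room temperature, and luminescence read for 15 sec.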
# % is scaled to controls: 0 for no effect and ±100 for the full control effect; potency is read from the fitted curve at half-maximal effect; tags tell the direction and shape of the fitted curve.
SMILES,Potency,"activity change, negative = inhibition"
N=c1ccn(CC(=O)c2ccc(-c3ccccc3)cc2)cc1,active: 0.891 µM,
O=C(NCCc1csc(-c2ccccc2)n1)c1c(F)cccc1F,"inconclusive [inhibitor, single point]",
O=C(NC1CCCC1)c1cnn2c(C(F)(F)F)cc(-c3ccc4c(c3)OCO4)nc12,"inconclusive [inhibitor, single point]",
Cc1c(C)c2ccc(OCc3ccc(C(=O)O)o3)c(C)c2oc1=O,inactive,
Cc1ccc(NC(=S)Nc2ccc3cn[nH]c3c2)cc1C,inactive,
CC(=O)Nc1sc(-c2ccc(Cl)cc2)nc1-c1ccccc1,"inconclusive [inhibitor, partial curve]",
C/C(=N\Nc1ccc2nncn2n1)c1ccccn1,active: 2 µM,
COc1ccc(N2CCCn3c2nc2c3c(=O)n(CCc3ccccc3)c(=O)n2C)cc1,inactive,
Nc1nccc(/C=C/c2c(Cl)cccc2Cl)n1,,inconclusive: -41.6% [inhibitor]
Cn1c(=O)[nH]c(=O)c2c1nc([N+](=O)[O-])n2Cc1ccccc1,inactive,
O=C(Nc1ccc(N2CCN(Cc3ccccc3F)CC2)cc1)c1ccc([N+](=O)[O-])o1,"inconclusive [inhibitor, partial curve]",
CC(C)COC(=O)N(C)c1ccc(C(O)(C(F)(F)F)C(F)(F)F)cc1,"inconclusive [inhibitor, full curve, poor fit]",
O=C(Nc1ccc(F)cc1)C1CCN(S(=O)(=O)c2ccc3[nH]c(=O)oc3c2)CC1,inactive,
CC(C)CCSc1cc(NCCO)c([N+](=O)[O-])c2nonc12,"inconclusive [inhibitor, partial curve]",
CCOc1ccccc1NC(=O)CSc1c(C)n[nH]c1C,"inconclusive [inhibitor, single point]",
CCOc1ccc(CCNC(=O)C2CC(C)=CCC2C(=O)O)cc1OCC (configuration not stated),inactive,
COc1ccc(S(=O)(=O)NCC(=O)Nc2cccc(C)c2C)cc1OC,"inconclusive [inhibitor, single point]",
Cc1cccc(C(=O)Nc2nc(C)c(C(=O)Nc3ccc4c(c3)CCC4)s2)c1,"inconclusive [inhibitor, partial curve]",
Cc1onc(-c2ccccc2)c1-c1nnc(COC(=O)c2ccc(O)cc2)o1,"inconclusive [inhibitor, single point]",
Clc1ccccc1N1CCN(Cc2ccc3c(c2)OCO3)CC1,"inconclusive [inhibitor, single point]",
CCC(=C(c1ccc(OC)cc1)c1ccc(OC)cc1)c1cn(CC(O)CN(CCO)CCO)c2ccccc12 (configuration not stated),"inconclusive [inhibitor, single point]",
O=C(COc1ccc2c(-c3ccccc3)cc(=O)oc2c1)Nc1ccc(CN2CCOCC2)cc1,"inconclusive [inhibitor, partial curve]",
O=C1C=CC(=Nc2cccc3c2C(=O)c2ccccc2-3)O1,inactive,
Cc1ccc(CNC(=O)c2ccc(Cn3nc(C)c(Cl)c3C)o2)cc1,inactive,

SMILES,Potency,"activity change, negative = inhibition"
CC(CCc1ccccc1)NC(=O)C1CCCN(C(=O)c2cc3sccc3n2C)C1 (configuration not stated),"inconclusive [inhibitor, partial curve]",
O=C(Nc1ccccc1N1CCCC1)c1cc(Cl)ccc1Cl,"inconclusive [inhibitor, partial curve]",
CCN1CCN(c2cc(C)c3cc(NC(=S)N4CCCCC4)ccc3n2)CC1,"inconclusive [inhibitor, partial curve]",
CC1CCN(c2cc(N3CCC(C)CC3)c([N+](=O)[O-])cc2/C=C(\C#N)c2nn(-c3ccccc3)c(N)c2C#N)CC1,"inconclusive [inhibitor, partial curve, poor fit]",
Oc1ccc2c(c1)oc1cc(O)ccc12,"inconclusive [inhibitor, partial curve]",
Cc1ccc(-c2nnc(N3CCN(C(=O)CSc4ncn[nH]4)CC3)c3ccccc23)cc1,"inconclusive [inhibitor, full curve]",
Cc1ccc(-c2cc(N)n(-c3ccc(F)cc3)n2)cc1,inactive,
CC1CN(C(=O)C(Sc2ccccc2)c2ccccc2)CC(C)O1 (configuration not stated),inactive,
Cc1cc(CNC(=O)COc2cc(F)ccc2[N+](=O)[O-])c2ccccc2n1,"inconclusive [inhibitor, single point]",
O=C(Nc1ccccc1)C1=C[C@@H](c2ccc(Br)cc2)C[C@@H](OCc2ccc(CO)cc2)O1,"inconclusive [inhibitor, single point]",
CCC(=O)NC1=C(Nc2ccc(N)cc2)C(=O)c2ccccc2C1=O,"inconclusive [inhibitor, single point]",
CCOC(=O)c1c(NC(=O)C(Sc2ccccc2)c2ccccc2)sc(C(=O)N(C)C)c1C (configuration not stated),"inconclusive [inhibitor, partial curve]",
O=c1c(-c2cc3ccccc3o2)[n+]([O-])c2ccccc2n1OCc1ccccn1,"inconclusive [inhibitor, single point]",
c1ccc(-c2ccc(OCCN3CCOCC3)cc2)cc1,"inconclusive [inhibitor, single point]",
CC1(C)CC(N2CCN(Cc3ccccc3)CC2)=CC(=[N+]2CCCCC2)C1,"inconclusive [inhibitor, full curve, poor fit]",
CCCS(=O)(=O)N1CCCC(C(=O)N2CCN(c3ccccc3)CC2)C1 (configuration not stated),inactive,
N#CC1(NC(=O)COC(=O)C2CCN(S(=O)(=O)c3ccc4c(c3)OCCO4)CC2)CCCCC1,inactive,
CCC[C@@H](CNC)NC[C@H](Cc1ccccc1)NCCCCc1ccccc1,"inconclusive [inhibitor, single point]",
CCOC(=O)C1=C(C)NC(C)=C(C(=O)OCCNC(=O)c2cccnc2)C1c1cccc([N+](=O)[O-])c1 (configuration not stated),inactive,
CC(=O)N1CCN(CC(=O)c2ccc(Br)cc2)CC1,inactive,
Cc1cc(C)c(NC(=O)COC(=O)c2c(C)noc2C)c(Cl)c1,"inconclusive [inhibitor, single point]",
N#Cc1ccc(/C=C/C(=O)c2ccccc2)cc1,inactive,
O=C(CN1CCN(c2ccccc2O)CC1)Nc1ccc2c(c1)OCCCO2,inactive,
CCOC(=O)c1ccc(NC(=O)CCc2c(C)nc3ncnn3c2C)cc1,"inconclusive [inhibitor, single point]",

SMILES,Potency,"activity change, negative = inhibition"
CC1=CC(C)(C)N2C(=O)C3(C(C#N)=C(N)Oc4cc(C)oc(=O)c43)c3cccc1c32 (configuration not stated),"inconclusive [inhibitor, full curve, poor fit]",
CCOc1cc2c(cc1OCC)-n1cccc1C(c1c(O)cccc1OC)NC2 (configuration not stated),"inconclusive [inhibitor, single point]",
CC(=O)c1ccc(NC(=O)COC(=O)/C=C/c2cccs2)cc1,inactive,
CCOC(=O)C1(CCOc2ccccc2)CCN(C(=O)c2ccc(-n3cccn3)cc2)CC1,"inconclusive [inhibitor, single point]",
CCOC(=O)C1=C(C)NC2=C(C(=O)CC(C)(C)C2)C1c1ccc(N(C)C)cc1 (configuration not stated),"inconclusive [inhibitor, single point]",
CCN(CC(=O)Nc1c(F)cccc1F)C(=O)/C=C/c1ccc2c(c1)OCO2,inactive,
Cc1ccc2cc(C=O)c(N3CCOCC3)nc2c1C,"inconclusive [inhibitor, partial curve, poor fit]",
COC(=O)Cn1cc(/C=N/NC(=O)COc2cccc3cccnc23)c2ccccc21,inactive,
COc1cc2c(cc1NC(=O)CSc1nc3ccccc3[nH]1)oc1ccccc12,active: 8.91 µM,
COc1cccc(/C=N/NC(=O)Cn2nc(C)c([N+](=O)[O-])c2C)c1O,"inconclusive [inhibitor, single point]",
COCCCNC(=O)c1cc(C(=O)c2c(-c3c(Cl)cccc3Cl)noc2C)c[nH]1,"inconclusive [inhibitor, single point]",
Cc1ccc(/C=N/Nc2cccc(C(=O)O)c2)s1,inactive,
O=C(NC(=S)Nc1cccnc1)c1ccccc1,"inconclusive [inhibitor, single point]",
COc1cc(OC)cc(C(=O)NCC(=O)Nc2ccc(OC)c(Cl)c2)c1,inactive,
O=C(O)/C=C/c1cnc[nH]1,"inconclusive [inhibitor, partial curve]",
Cc1ccc(SCC(=O)NC2CCS(=O)(=O)C2)cc1 (configuration not stated),inactive,
CCN1C(=O)[C@H]2[C@H]3CN=C(SCc4ccc(Cl)cc4)N3[C@@](CC)(C(=O)OC)[C@H]2C1=O,"inconclusive [inhibitor, single point]",
COc1ccc(/C=C(/NC(=O)c2cccs2)C(=O)N2CCOCC2)cc1OC,inactive,
COC(=O)C1=C(c2ccccc2)C[C@@H]2CC[C@H]1N2C(=O)NCc1ccc(F)cc1,inactive,
Cc1ccc(NC(=O)NCCCN2CCCC2=O)cc1Cl,inactive,
COc1ccc(-c2cc(C(=O)Nc3cc(OC)c(OC)c(OC)c3)no2)cc1,"inconclusive [inhibitor, full curve, poor fit]",
CSc1nc(-c2ccco2)nn1C(=O)c1cccs1,inactive,
CN(C)CCNC(=O)c1cccc2nc3cccc(F)c3nc12,"inconclusive [inhibitor, full curve]",
COc1ccc(S(=O)(=O)N2CCN(C(=O)c3ccc(=O)[nH]n3)CC2)cc1OC,"inconclusive [inhibitor, single point]",

# Source: PubChem BioAssay AID651820 (National Center for Advancing Translational Sciences (NCATS), 2012)
